Measurements published in publication PMC4336329 (PLoS ONE, 2015).
The whole screen tested about 310,000 compounds, of which about 14,000 (4.5%) showed an effect of 50% or more. Effects have a minus sign here. This is one part of the list.

What follows are compounds tested against human ether-à-go-go-related gene (hERG) potassium channel (human, UniProt Q12809) (assay: primary screen, population patch clamp on CHO cells stably expressing hERG).
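Further: peak tail current of the secondary pulse compared with the same well before compound.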

human ether-à-go-go-related gene (hERG) potassium channel, sequence (Q12809 whole entry, looked up): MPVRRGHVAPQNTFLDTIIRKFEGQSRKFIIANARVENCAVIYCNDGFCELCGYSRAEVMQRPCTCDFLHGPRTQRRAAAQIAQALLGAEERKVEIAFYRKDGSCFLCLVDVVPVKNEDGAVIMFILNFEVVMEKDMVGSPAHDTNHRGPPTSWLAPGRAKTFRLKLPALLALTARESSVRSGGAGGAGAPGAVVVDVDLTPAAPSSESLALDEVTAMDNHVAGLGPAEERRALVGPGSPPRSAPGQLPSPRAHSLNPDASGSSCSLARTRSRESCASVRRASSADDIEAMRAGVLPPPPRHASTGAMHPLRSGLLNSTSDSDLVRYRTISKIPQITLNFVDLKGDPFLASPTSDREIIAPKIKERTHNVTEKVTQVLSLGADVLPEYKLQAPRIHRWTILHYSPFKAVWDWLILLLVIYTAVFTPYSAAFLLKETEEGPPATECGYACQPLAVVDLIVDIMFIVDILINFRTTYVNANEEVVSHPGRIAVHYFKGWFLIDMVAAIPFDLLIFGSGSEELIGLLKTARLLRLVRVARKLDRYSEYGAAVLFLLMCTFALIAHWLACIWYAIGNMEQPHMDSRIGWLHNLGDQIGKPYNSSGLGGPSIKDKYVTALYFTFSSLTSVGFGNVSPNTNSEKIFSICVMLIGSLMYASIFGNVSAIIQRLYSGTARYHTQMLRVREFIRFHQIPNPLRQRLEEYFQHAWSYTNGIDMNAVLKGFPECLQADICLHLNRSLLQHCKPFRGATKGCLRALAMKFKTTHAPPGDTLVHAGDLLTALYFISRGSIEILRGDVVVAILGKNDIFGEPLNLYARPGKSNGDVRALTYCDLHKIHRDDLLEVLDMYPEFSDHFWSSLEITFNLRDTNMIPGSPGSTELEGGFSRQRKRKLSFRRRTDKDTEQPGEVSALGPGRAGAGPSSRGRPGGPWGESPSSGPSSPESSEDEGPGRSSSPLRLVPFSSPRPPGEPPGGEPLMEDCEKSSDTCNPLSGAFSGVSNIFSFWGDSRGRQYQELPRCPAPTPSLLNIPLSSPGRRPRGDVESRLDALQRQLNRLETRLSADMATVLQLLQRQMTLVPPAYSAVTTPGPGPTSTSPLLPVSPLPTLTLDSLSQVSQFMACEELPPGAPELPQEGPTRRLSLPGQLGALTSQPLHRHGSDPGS

Compared with CCOc1ccc(NC(=O)c2cc(SC)ccc2Cl)cc1, CSc1cccc(NC(=O)CCCOc2ccc(Cl)cc2C)c1 is lower in “hERG current change (%, negative = inhibition) at 10uM” value: 4.32% for the first, -2.48% for the second.

Compared with C=CCOc1ccc(/C=N/NC(=O)c2c(C)nc3ccc(Cl)cn23)cc1, NC(=O)c1ccccc1NC(=O)COc1ccc(Cl)cc1 is lower in “hERG current change (%, negative = inhibition) at 10uM” value: 16% for the first, -0.944% for the second.

Compared with CCC(C)c1ccc(NC(=O)N2CCOCC2)cc1 (centres unmarked), CSc1ccccc1C(=O)N1CCOCC1 is higher in “hERG current change (%, negative = inhibition) at 10uM” value: 6.59% for the first, 20% for the second.

Going from CCOC(=O)Cn1cc(/C=C(/C#N)C(=O)NC(C)C)c2ccccc21 to CC(C)[C@H](NC(=O)c1ccccc1)C(=O)NCCc1ccccc1, the “hERG current change (%, negative = inhibition) at 10uM” value falls from 8.22% to -32.4%.

Compared with Cc1noc(NS(=O)(=O)c2ccc(N/C=C\C(=O)c3ccc4c(c3)OCO4)cc2)c1C, O=C(/C=C/c1ccc(Cl)cc1Cl)Nc1cccc(S(=O)(=O)NC2=NCCC2)c1 is higher in “hERG current change (%, negative = inhibition) at 10uM” value: 4.93% for the first, 25.8% for the second.

Compared with COc1ccc(/C=C2\Sc3ccc(C(=O)N4CCCC4)cc3N(C)C2=O)cc1OC, O=C(Cn1c(=O)oc2cc(S(=O)(=O)NCc3ccccc3)ccc21)N1CCCC1 is higher in “hERG current change (%, negative = inhibition) at 10uM” value: 11.5% for the first, 15.2% for the second.

Going from Cc1cc(Cl)ccc1OCC(=O)OCC(=O)NC1CCCC1 to CCOC(=O)N1CCC(NC(=O)CCC(=O)N2CC(C)Oc3ccc(Cl)cc32)CC1 (centres unmarked), the “hERG current change (%, negative = inhibition) at 10uM” value falls from 17.1% to -3.99%.

First: CC(=O)c1cccc(NC(=O)N2CCCC2C(=O)Nc2cc(C)ccc2C)c1 (centres unmarked)
Second: Cc1ccc(C)c(NC(=O)c2cc(-c3cc(C)ccc3O)n[nH]2)c1
The “hERG current change (%, negative = inhibition) at 10uM” value of the first is lower: -10.8% for the first, 20.9% for the second.

First: OCC1(C2=NOC(O)(C(F)(F)F)C2)CCCCC1 (centres unmarked)
Second: O=C1N2c3ccccc3CCc3cccc(c32)C1(O)C(F)(F)F (centres unmarked)
The “hERG current change (%, negative = inhibition) at 10uM” value of the first is higher: 11.1% for the first, -32.8% for the second.

Compared with COc1ccc(NC(=O)c2sc(=S)[nH]c2N)cc1, COc1ccc(Nc2nc(-c3cccs3)cs2)cc1 is higher in “hERG current change (%, negative = inhibition) at 10uM” value: 21.1% for the first, 21.2% for the second.

First: Cc1nnc(N2CCCC(C(=O)NCc3ccc(OC(C)C)cc3)C2)c2nn(-c3ccccc3)c(C)c12 (centres unmarked)
Second: COc1ccc(-c2noc(=O)n2CC(=O)N2CCC(Cc3ccccc3)CC2)cc1
The “hERG current change (%, negative = inhibition) at 10uM” value of the first is higher: -9.05% for the first, -21% for the second.

Going from CC(=O)c1ccc(S(=O)(=O)N2CCC(Oc3ccc(-n4cnnn4)cc3)CC2)cc1 to Cc1cccc(NC(=O)CN2CCN(C(=O)c3cccc(-n4cnnn4)c3)CC2)c1C, the “hERG current change (%, negative = inhibition) at 10uM” value falls from 21.9% to -41.5%.

Going from COc1ccc(C2(C(=O)Nc3ccc(C)c(C)c3)CCOCC2)cc1 to CCc1ccc(NC(=O)NCCN2CCN(c3ccc(OC)cc3)CC2)cc1, the “hERG current change (%, negative = inhibition) at 10uM” value falls from 6.97% to -14.1%.

Going from COc1ccc(C2(C)NC(=O)N(CC(=O)Nc3ccc4[nH]c(=O)[nH]c4c3)C2=O)cc1 (centres unmarked) to COc1ccc(CNC(=O)c2ccc(CNc3c(NC4CCCCC4)c(=O)c3=O)cc2)cc1, the “hERG current change (%, negative = inhibition) at 10uM” value falls from 17.7% to 12.7%.

First: O=c1[nH]cnc2c1C(c1ccc(Cl)cc1)c1c(nc[nH]c1=O)O2
Second: Clc1ccc(Nc2nc3ccccc3n3nnnc23)cc1
The “hERG current change (%, negative = inhibition) at 10uM” value of the first is lower: 1.91% for the first, 7.76% for the second.

Compared with Cc1c(NC(=O)C(C)OC(=O)COc2cccc3c2OC(C)(C)C3)c(=O)n(-c2ccccc2)n1C (centres unmarked), Cc1ccccc1OCC(=O)OC(C(=O)c1ccccc1)c1ccccc1 (centres unmarked) is higher in “hERG current change (%, negative = inhibition) at 10uM” value: 9.83% for the first, 15.3% for the second.

Compared with O=C(COC(=O)c1cc2c(s1)CCCC2)NCc1ccccc1Cl, O=C(NCCc1ccccc1)c1ccc2nc(N3CCOCC3)sc2c1 is higher in “hERG current change (%, negative = inhibition) at 10uM” value: 1.44% for the first, 3.75% for the second.

First: CSc1ccc(/C=C(/NC(=O)c2ccco2)C(=O)N2CCCCC2)cc1
Second: O=C(Nc1cccc(NC(=O)c2ccco2)c1)c1cccc(Br)c1
The “hERG current change (%, negative = inhibition) at 10uM” value of the first is higher: -27.9% for the first, -30.6% for the second.

Compared with Br.Nc1nc(-c2ccccc2)c(N=Nc2ccc(Cl)cc2)s1, Cc1oc(-c2ccccc2)nc1CN1C(=O)CN=C(c2ccccc2)c2ccccc21 is lower in “hERG current change (%, negative = inhibition) at 10uM” value: 7.86% for the first, -32.8% for the second.

Compared with CCOC(=O)C1CCN(C(=O)c2cccc(NC(=O)C(CC)CC)c2)CC1, Cc1cccc(C(=O)OCCN2CCOCC2)c1.Cl is higher in “hERG current change (%, negative = inhibition) at 10uM” value: -0.115% for the first, 12.3% for the second.

Compared with OC(CNCCC(c1ccccc1)c1ccccc1)COc1ccccc1 (centres unmarked), Cc1ccnc(NC(=O)CCC(=O)N(CC(=O)NCc2ccccc2)Cc2ccccc2)c1 is higher in “hERG current change (%, negative = inhibition) at 10uM” value: -71.4% for the first, -16.7% for the second.

Compared with C[N+]12CN3CN(CN(C3)C1)C2.[I-], S=C1N(c2ccccc2)CN(CCN2CCOCC2)CN1c1ccccc1 is higher in “hERG current change (%, negative = inhibition) at 10uM” value: 15.1% for the first, 23% for the second.

Going from CCCCCCn1c(CN2CCN(C(=O)c3ccco3)CC2)nc2c1c(=O)n(C)c(=O)n2C to CCCCCC(=O)N1CCN(CCN=CC2=C(O)CC(c3ccco3)CC2=O)CC1 (centres unmarked), the “hERG current change (%, negative = inhibition) at 10uM” value falls from -65.8% to -76.2%.

First: COc1ccc(-c2cnc3ncnn3c2N)cc1
Second: COc1ccc(Nc2c3c(c(C#N)c4nc5ccccc5n24)CCC3)cc1
The “hERG current change (%, negative = inhibition) at 10uM” value of the first is higher: 11.6% for the first, 2.54% for the second.

Compared with Cn1c(CCNS(=O)(=O)c2ccc(F)cc2)nnc1SCc1cccnc1, O=C(Cc1ccc(F)cc1)NC(Cc1c[nH]c2ccccc12)C(=O)O (centres unmarked) is higher in “hERG current change (%, negative = inhibition) at 10uM” value: 17.8% for the first, 24.7% for the second.

Compared with c1ccc2cc(Sc3ncnc4c3oc3ccccc34)ccc2c1, CN(Cc1ccccc1)C(=O)COC(=O)c1ccc2ccccc2n1 is lower in “hERG current change (%, negative = inhibition) at 10uM” value: 22% for the first, -4.26% for the second.

First: CCOc1cc(NC(=O)c2cccs2)c(OCC)cc1NC(=O)c1cccnc1
Second: COc1ccc(C(=O)NNC(=S)NC(=O)c2cccs2)cc1
The “hERG current change (%, negative = inhibition) at 10uM” value of the first is higher: 21.1% for the first, 10.8% for the second.

Compared with CNC(=O)c1ccc(-c2ccc(F)cc2)s1, NC(=O)c1ccc(-c2ccc(Br)cc2)o1 is lower in “hERG current change (%, negative = inhibition) at 10uM” value: 4.34% for the first, 0.329% for the second.

Compared with C/C(O)=C/c1nc2ccccc2[nH]c1=O, O=C1C(C=NCc2ccncc2)=C(O)c2ccccc21 is lower in “hERG current change (%, negative = inhibition) at 10uM” value: -5.26% for the first, -9.12% for the second.

Compared with CN(C)c1nc(N)nc(CSc2nnnn2-c2ccccc2)n1, CCN(Cc1ccccc1)C(c1cccc(C#N)c1)c1nnnn1C(C)(C)C (centres unmarked) is higher in “hERG current change (%, negative = inhibition) at 10uM” value: -6.81% for the first, -6.6% for the second.

First: CCC(C)c1ccccc1NC(=O)C(C)N(C)Cc1cccc(OC)c1.O=C(O)C(=O)O (centres unmarked)
Second: COc1cccc(C(=O)Nc2nnc(S(=O)(=O)N(C)c3ccccc3)s2)c1
The “hERG current change (%, negative = inhibition) at 10uM” value of the first is lower: 11.8% for the first, 12.6% for the second.

Compared with C/C(=C1/SC(N2CCOCC2)=NC1=O)c1ccc(Cl)cc1, O=C(NCCN1CCOCC1)c1ccc2ccccc2n1 is higher in “hERG current change (%, negative = inhibition) at 10uM” value: 5.5% for the first, 13.8% for the second.

Going from CCc1nnc(NC(=O)CSc2nc3cc4c(cc3cc2C)OCCO4)s1 to CCCc1cc(=O)[nH]c(/N=C(/NC(=O)c2ccccc2)Nc2ccc3c(c2)OCCO3)n1, the “hERG current change (%, negative = inhibition) at 10uM” value rises from 4.52% to 10.1%.

Going from OC1CCN(Cc2nc(Cc3ccccc3Cl)no2)CC1 to Cl.O=C(c1ccco1)N1CCN(C(c2ccccc2Cl)c2nnnn2CC2CCCO2)CC1 (centres unmarked), the “hERG current change (%, negative = inhibition) at 10uM” value falls from 13.3% to -12.3%.

Compared with O=C(CN1CCc2cc3c(cc2C1)OCCCO3)Nc1cccc(Br)c1, CNC(=S)N/N=C/c1ccc2c(c1)OCCO2 is higher in “hERG current change (%, negative = inhibition) at 10uM” value: 8.67% for the first, 22.6% for the second.

Going from CN(C)c1nc(C(N)=O)nc(N2CCOCC2)n1 to CCOc1cc(N2CCOCC2)c(OCC)cc1NC(=O)CSc1nc(N)cc(=O)[nH]1, the “hERG current change (%, negative = inhibition) at 10uM” value rises from 2.5% to 10.4%.

Going from O=C(Cc1cc(=O)[nH][nH]1)N/N=C/c1c(F)cccc1Cl to COc1cccc(F)c1C(C[N+](=O)[O-])c1c(N)n(C)c(=O)n(C)c1=O (centres unmarked), the “hERG current change (%, negative = inhibition) at 10uM” value falls from 12.1% to -0.833%.

Going from COc1ccc(C)cc1S(=O)(=O)N(CC(=O)Nc1cccc([N+](=O)[O-])c1)c1cc(C)cc(C)c1 to Cc1ccc(NC(=O)c2ccc(CNS(=O)(=O)c3cccc(C(F)(F)F)c3)cc2)cc1, the “hERG current change (%, negative = inhibition) at 10uM” value falls from 11.1% to -5.08%.

First: Cc1noc(C)c1CSCC(=O)N1CCN(c2ccc([N+](=O)[O-])cc2)CC1
Second: CN1C2CCC1CC(NC(=O)c1ccc([N+](=O)[O-])cc1)C2 (centres unmarked)
The “hERG current change (%, negative = inhibition) at 10uM” value of the first is lower: -76.8% for the first, 3.81% for the second.

Going from O=C(NCC1CCN(Cc2ccc(Cl)cc2)CC1)C1CCCN(c2ncnc3c2nc2n3CCCCC2)C1 (centres unmarked) to O=C(Nc1ccccc1)c1ccc(NC2CCCCC2)c(S(=O)(=O)N2CCOCC2)c1, the “hERG current change (%, negative = inhibition) at 10uM” value rises from -65.7% to 6.2%.

First: CCN(CC)S(=O)(=O)c1ccc(N/N=C/c2ccc(O)cc2)nc1
Second: CCCCCC(=O)Nc1ccc2oc(-c3cccnc3)nc2c1
The “hERG current change (%, negative = inhibition) at 10uM” value of the first is lower: -12.9% for the first, -6.74% for the second.

Compared with Cc1cc(NC(=O)COC(=O)C2=COCCO2)c([N+](=O)[O-])cc1C, Cc1ccnc2nc(C(=O)NC3=NCCS3)nn12 is lower in “hERG current change (%, negative = inhibition) at 10uM” value: 14.9% for the first, 11.8% for the second.

First: O=C(c1cc(S(=O)(=O)N2CCOCC2)c(Cl)cc1Cl)N1CCCCC1
Second: CC(C(=O)Nc1nncs1)N1C(=O)C2C3C=CC(C3)C2C1=O (centres unmarked)
The “hERG current change (%, negative = inhibition) at 10uM” value of the first is lower: -3.46% for the first, -0.959% for the second.

Going from O=C(CSc1n[nH]c(-c2ccncc2)n1)Nc1ccc(Br)cc1 to CC(=O)C1=C(O)C(=O)N(c2ccc(C(=O)O)cc2)C1c1ccccc1 (centres unmarked), the “hERG current change (%, negative = inhibition) at 10uM” value rises from -2.1% to 14.1%.

For CCC(C)[C@@H](CN)NCC1(c2ccccc2)CC1 (some centres unmarked), the “hERG current change (%, negative = inhibition) at 10uM” value was 20.9%.
